Data on four molecules can be found in patent US20210363269A1 (ALX ONCOLOGY, published 2021).

Substitutions are numbered along the chain they refer to.

Assay [1] concerns the target T1, human SIRPγ isoform 1 (human, UniProt Q9P1W8 29-147).
T1 construct: also called human SIRP-γ v1; sirpg
Nature of the assay: ELISA, target coated on the plate, scFv-Fc titrated from 0.008 to about 1 µg/ml, OD 405. How it is done: (§1) ELISA assays were carried out to screen binding of antibody clones to SIRP analytes and SIRP-α:CD47 complex. […] Plates were blocked with PBS™ (Phosphate Buffered Saline pH 7.4, 0.05% Tween®20 polysorbate, 3% milk), 50 ul of supernatant containing the secreted scFv-Fc are added for 1 hr at room temp. Plates were washed with PBST. 50 ul of anti-hFc-HRP (1:5000 Rockland 609-4303) added for 1 hr at room temp. Plates were washed with PBST. TMB was developed for 5 min and stopped with 1N HCl. ELISA results were read using BioTek Synergy H1 Hybrid Reader. The corresponding proteins used for the assay and described here are: human SIRPα V1 (SEQ ID NO: 5); human SIRPα V2 (SEQ ID NO:6); cynomolgus SIRPα (SEQ ID NO:11); mouse NOD SIRPα (SEQ ID NO: 8); human SIRPγ (SEQ ID NO: 15); CD47 (SEQ ID NO: 16); high affinity SIRPα V1 (SEQ ID NO: 42); high affinity SIRPα V2 (SEQ ID NO:17).
In general terms: In an ELISA, binding on a coated surface is turned into a signal by an enzyme label.

For assay [2], the target named is T2, NOD mouse SIRP-α D1 domain (mouse (NOD strain)).
T2 construct: also called mouse NOD SIRPα
T2 chain: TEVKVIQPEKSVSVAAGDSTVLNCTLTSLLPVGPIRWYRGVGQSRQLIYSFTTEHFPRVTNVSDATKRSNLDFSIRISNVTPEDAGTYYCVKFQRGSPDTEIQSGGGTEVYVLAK
Described as above. The method, then:
as §1

In assay [3] the target is T3, complex of high affinity SIRP-α variant (SEQ ID NO:17) pre-mixed with CD47 (SEQ ID NO:16) (human, UniProt P78324 31-149; Q08722 in part).
T3 construct: also called SIRP-α/CD47 complex (SPR screen)
Nature of the assay: SPR, scFv-Fc captured on anti-human IgG Fc, analyte 100 nM high affinity SIRPa pre-mixed with 500 or 1500 nM CD47. The method, then: To assess if antibodies can block binding of SIRPα to CD47, an SPR screen was also carried out, in addition to screening by ELISA. Antibody capture was carried out using an anti-human IgG-Fc immobilized GLC surface prepared as described above. A SIRPα variant (SEQ ID NO:17) engineered to bind CD47 (SEQ ID NO:16) with high nM affinity was used for the screen rather than a wildtype SIRP-α. […] Phosphate buffered saline (PBS, pH 7.4) supplemented with 0.01% Tween-20 (PBST) as running buffer.
First, approximately 5-10 uL of pre-filtered media containing the antibodies in 10 mM sodium acetate buffer (pH4.5) was injected for 2 mins at 30 ul/min and captured over the anti-human IgG-Fc immobilized GLC surface followed by a brief buffer flow of 1 min at 100 uL/min. […] For the description below, SIRP-α refers to SEQ ID NO:17.

Assay [4] deals with T4, human SIRP-α v2 D1 domain (human).
T4 construct: also called human v2; human α v2
Nature of the assay: SPR, captured scFv-Fc, 100 nM analyte. (SPR reads the build-up and loss of mass on a sensor chip optically.)

The target in assay [5] is T5, human SIRPγ isoform 1 (human, UniProt Q9P1W8 29-147).
T5 construct: also called sirpg; sirp-g
Nature of the assay: SPR, captured scFv-Fc, 100 nM analyte.

The target of assay [6] is T6, human SIRP-α v1 D1 domain (human, UniProt P78324 31-149).
T6 construct: also called human v1; human α v1
Nature of the assay: SPR, captured scFv-Fc, 100 nM analyte.

A further assay deals with T7, human SIRPβ isoform 1 (human, UniProt O00241 30-148).
T7 construct: also called sirpb1; Sirpb1
Nature of the assay: SPR, captured scFv-Fc, 100 nM analyte.

Assay [7] deals with T8, C57BL/6 mouse SIRP-α D1 domain (mouse (C57BL/6 strain), UniProt P97797 32-148).
T8 sequence: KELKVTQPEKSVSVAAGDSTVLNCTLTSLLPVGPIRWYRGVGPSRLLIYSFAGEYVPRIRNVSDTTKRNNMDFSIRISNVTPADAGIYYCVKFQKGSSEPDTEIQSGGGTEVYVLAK
Nature of the assay: SPR, captured scFv-Fc, 100 nM analyte.

Assay [8] has as its target T9, cynomolgus SIRP-α D1 domain (SEQ ID NO:12) (cynomolgus, UniProt Q5TFQ8 30-148 (human entry), limits assumed).
T9 construct: also called cyno2; Cyno2
T9 chain: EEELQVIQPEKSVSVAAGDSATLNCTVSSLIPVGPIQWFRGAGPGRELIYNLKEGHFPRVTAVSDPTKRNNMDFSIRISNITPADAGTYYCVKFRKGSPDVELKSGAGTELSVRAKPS
Nature of the assay: SPR, captured scFv-Fc, 100 nM analyte.

Assay [9] addresses T10, mouse 129 SIRP-α D1 domain (mouse (129 strain), UniProt P97797 32-150).
T10 construct: also called m129
T10 chain: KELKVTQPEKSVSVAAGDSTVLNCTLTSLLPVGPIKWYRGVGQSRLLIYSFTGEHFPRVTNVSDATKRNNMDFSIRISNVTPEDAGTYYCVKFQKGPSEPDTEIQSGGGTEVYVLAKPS
Nature of the assay: SPR, captured scFv-Fc, 100 nM analyte.

Assay [10] concerns the target T11, cynomolgus SIRP-α D1 domain (SEQ ID NO:11) (cynomolgus, UniProt Q5TFQ8 30-148 (human entry), limits assumed).
T11 construct: also called cyno1
T11 chain: T9 chain with D19E, V27A, S28T, A42V, N51H, L52Q, A62P
Nature of the assay: SPR, captured scFv-Fc, 100 nM analyte.

In assay [11] the target is T12, NOD mouse SIRP-α D1 domain (mouse (NOD strain)).
T12 chain: T2 chain
Nature of the assay: SPR, captured scFv-Fc, 100 nM analyte.

The target in assay [12] is T13, high affinity SIRP-α D1 variant CV1-3 (human).
T13 chain: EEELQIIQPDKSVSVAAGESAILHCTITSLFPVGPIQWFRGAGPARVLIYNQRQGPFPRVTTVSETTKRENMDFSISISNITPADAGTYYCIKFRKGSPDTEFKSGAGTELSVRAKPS
Nature of the assay: SPR, captured scFv-Fc, 100 nM analyte; LB = very low binding. The method, then: Binding of the antibody clones to various SIRP proteins was determined using surface plasmon resonance (SPR) detection on a ProteOn XPR36 instrument (Bio-Rad, Hercules, Calif.) using phosphate buffered saline (PBS, pH 7.4) supplemented with 0.01% Tween-20 (PBST) as running buffer. The pre-filtered media containing the secreted antibodies was used directly for the assay. First, anti-Human IgG Fc (BR-1008-39, GE Healthcare) was amine-coupled onto a GLC sensor chip to generate the capture surfaces for the antibodies. About 4000 RU per flow cell of immobilized anti-human IgG Fc is achieved. Each clone is screened using the same method as follows.
(1) ‥5-10 uL of pre-filtered media in 10 mM sodium acetate buffer (pH4.5) was injected for 2 mins at 30 ul/min;
The koff rates of binding of each clone to each SIRP analyte were determined using SPR (Table C). The SPR screening conditions have been described herein, and the Koff values were determined using Langmuir kinetic fittings. The CD47 blocking properties (block, non-block, kick-off) are described in the last column of the Table C. Each antibody is identified according to its corresponding SEQ ID NO. SIRP analyte sequences are as follows: CV1-3, SEQ ID NO:18; v1, SEQ ID NO:5; v2, SEQ ID NO:6; cyno1, SEQ ID NO:11; cyno2, SEQ ID NO:12; m129, SEQ ID NO:7; NOD, SEQ ID NO: 8; BL6, SEQ ID NO:9; sirpb1, SEQ ID NO:13; sirpg, SEQ ID NO:15.

human SIRPγ isoform 1, sequence (Q9P1W8 29-147 limits assumed): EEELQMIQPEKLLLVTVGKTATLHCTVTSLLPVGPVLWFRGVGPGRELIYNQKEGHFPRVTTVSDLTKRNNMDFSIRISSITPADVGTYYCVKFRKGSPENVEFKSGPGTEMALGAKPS
human SIRPβ isoform 1, sequence (O00241 30-148 limits assumed): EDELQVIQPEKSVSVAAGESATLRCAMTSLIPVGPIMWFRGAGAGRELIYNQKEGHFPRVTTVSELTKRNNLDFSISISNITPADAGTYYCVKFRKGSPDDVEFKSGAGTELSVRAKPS

B1: S128 (scFv)
scFv: ETVLTQSPATLSVSPGERATLSCRASQTVGSKLAWHQQKPGQAPRLLIYDASNRATGIPDRFSGSGSGTDFTLTISSLQTEDSAVYYCQQYYYWPPYRFGGGTKVEIKGQSSRSSGGGGSSGGGGSDVQLVESGGGVVRPGESLRLSCAASGFSFRSYAMNWVRQAPGEGLEWVSRIDSGGGGTDYADSVKGRFTISRDNSKNTLYLQMNSLRAEDTAVYYCAKQYDWNSFFDYWGLGAPVTVSSSL[letters of human IgG1 Fc with C220S (EU numbers) and a few adjoining residues left out]
notes: scFv-Fc, whole entry; tested as secreted medium; also called clone S128
For B1, the binding result (with human SIRPγ isoform 1 [1]; in assay [2]) was “no binding (tested: about 1 µg/ml)” in each case.

B2: S119 (scFv)
scFv: EIVLTQSPATLSVSPGERATFSCRASQNVKNDLAWYQQRPGQAPRLLIYAARIRETGIPERFSGSGSGTEFTLTITSLQSEDFAVYYCQQYYDWPPFTFGGGTKVEIKGQSSRSSGGGGSSGGGGSDVQLLESGGGVVQPGGSLRLSCAASGFSFSNFAMTWVRQAPGEGLEWVSTIGSGDTYYADSVKGRFTISRDNSKNTLYLQMNSLRAEDTAVYYCAKDSTVSWSGDFFDYWGLGTLVTVSSSL[letters of human IgG1 Fc with C220S T223P (EU numbers) and a few adjoining residues left out]
notes: scFv-Fc, whole entry; tested as secreted medium; also called clone S119
Consider B2, for which the binding result in [3] is “no binding”.

B3: S13 scFv-Fc (scFv)
scFv: AVTQPASVSANPGETVKITCSGSSSYYGWYRQKSPGSAPVTLIYDNDKRPSGIPSRFSGSKSGSTNTLTITGVQADDEAVYYCGNEDNSYVGIFGAGTTLTVLGQSSRSSGGGGSSGGGGSMAAVTLDESGGGLQTPGGALSLVCKASGFTFSSYNMGWVRQAPDKGLEFVAGIYTGSDAGLSTTYGAAVQGRATISRDNGQSTVRLQLNNLGAEDTGIYFCTKSAGGCSDYNCDAYIADSIDAWGHGTEVIVSSSL[letters of human IgG1 Fc with C220S (EU numbers) and a few adjoining residues left out]
As for B3, the koff in assay [4] came out at 0.000291 s⁻¹; in the assay with human SIRPγ isoform 1 [5] it was 0.000402 s⁻¹; in assay [6] it was 0.000207 s⁻¹; with human SIRPβ isoform 1, 0.000135 s⁻¹; in assay [7] it was 0.0103 s⁻¹; in [8] it was 0.000501 s⁻¹. For the same molecule, the koff in assay [9] amounted to 0.0493 s⁻¹; in [10], 0.00184 s⁻¹; in assay [11], 0.00383 s⁻¹. Moreover, in assay [12], the binding result was “binds”.

B4: S8 scFv-Fc (scFv)
scFv: AVTQPSSVSANPGETVEITCSGSSTYYGWYQQKSPGSAPVTVIYDNDKRPSDIPSRFSGSKSGSTHTLIITGVQVEDEAVYFCGNEDNNYVAIFGAGTTLTVLGQSSRSSGGGGSSGGGGSMAAVTLDESGGGLQTPGGALSLVCKASGFTFSSYNMGWVRQAPGKGLEFVAGIYASGSSTDTDTTYGPAVAGRATISRDNGQSTVRLQLNNLRAEDTGTYYCAKAAGGCSTHTCTAYIADSIDAWGHGTEVIVSSSL[letters of human IgG1 Fc with C220S (EU numbers) and a few adjoining residues left out]
In the case of B4, the koff in assay [4] turned out to be 0.000142 s⁻¹; in the assay with human SIRPγ isoform 1 [5], 0.000323 s⁻¹; in assay [6] it was 0.000114 s⁻¹; with human SIRPβ isoform 1, 9.3e-05 s⁻¹; in assay [7], 0.00696 s⁻¹; in assay [8] it was 0.000612 s⁻¹. The off-rate constant (koff) amounted to 0.0129 s⁻¹ in [9], 0.00415 s⁻¹ in assay [10] and 0.00179 s⁻¹ in assay [11]. Besides, the binding result in [12] is “binds”.

One may read the koff as the first-order rate constant of dissociation.
